Screen size: about 340,000 compounds; about 12,000 (3.5%) were called active. This list was built around the results that the source calls inconclusive (neither active nor inactive); the mix of calls is not that of the screen. Calls come from the whole dose curve; as a rule, active = well fitted inhibition curve with a large enough effect; inconclusive = small, poorly fitted or top-dose-only effect, or another doubt; inactive = no such curve, though single readings can be large or run the other way. No potency is given beside an inconclusive call; the fits are too rough.
test: qHTS Assay for Inhibitors of Hepatitis C Virus (HCV); settings: Huh7.5.1 HCVcc-Cre (HCVcc is cell-culture hepatitis C virus) infection, luciferase reporter, 44 h; series mostly up to 41.8 µM
Procedure, shortened: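 Infectious HCVcc-Cre (~0.5 moi) was added to cells just after compound, with cells seeded 4 h earlier at 1,000 per well. Luciferase activity after 44 h culture reported infection; substrate was incubated 15 min at room temperature before reading.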
Potency is the fitted concentration of half-maximal effect; tags give direction and shape of the fitted curve.

SMILES | Potency
O=C(CNC(=O)c1ccccc1F)NCc1cccnc1 | inconclusive [inhibitor, single point]
Cc1ccc(S(=O)(=O)c2nnn3c2nc(N2CCOCC2)c2ccccc23)cc1C | active: 10 µM
O=C1c2ccccc2NC(c2ccc(Cl)cc2Cl)N1O (configuration not stated) | inactive
CC(C)(C)N(Cc1ccccc1)C(=O)COC(=O)Cn1cnc2ccccc2c1=O | inactive
Cc1cccc(S(=O)(=O)c2c(N)n(/N=C/c3ccco3)c3nc4ccccc4nc23)c1 | active: 2.51 µM
Fc1ccc(-c2csc(Nc3ccccn3)n2)c(F)c1 | inconclusive [inhibitor, single point]
CC1CCC(NC(=O)CN(C)S(=O)(=O)c2ccc3c(c2)c(=O)n(C)c(=O)n3C)CC1 (configuration not stated) | inconclusive [inhibitor, single point]
Cc1cccc(NC(=O)c2cccc(OC(=S)N3CCOCC3)c2)c1C | inactive
CCCCCCc1cc2cc(S(=O)(=O)c3ccc(F)c(Cl)c3)c(=O)oc2cc1O | inconclusive [inhibitor, partial curve]
CCCc1nc(SCC(=O)c2ccc(OC)cc2)c2ccccc2n1 | active: 12.6 µM
CSCCC1Nc2ccc(S(=O)(=O)N3CCOCC3)cc2NC1=O (configuration not stated) | inactive
CCN(CC(=O)Nc1cccc(C(C)=O)c1)S(=O)(=O)c1ccc(OC)cc1 | inactive
Cc1cccc(C)c1NC(=O)COC(=O)c1ccc(N2CCCC2)c([N+](=O)[O-])c1 | inconclusive [inhibitor, single point]
CC(=O)CC(CC(=O)NC1CCCCC1)c1ccccc1 (configuration not stated) | inactive
O=c1[nH]nc(Sc2ncnc3sccc23)n1CCc1ccccc1 | inactive
CC(C)c1ccc(NC(=O)c2ccc3c(c2)C(=O)N(Cc2cccnc2)C3=O)cc1 | inactive
COc1cccc(C(=O)CSc2nnc(COc3cccc4cccnc34)o2)c1 | inconclusive [inhibitor, full curve, poor fit]
COc1ccc(/C=C/C(=O)Nc2ccccc2)cc1OC | inconclusive [inhibitor, single point]
CCOC(=O)Cn1c(-c2ccccc2)cc(SC)c(C#N)c1=O | inconclusive [inhibitor, partial curve]
C=CCSC(=C(C#N)C#N)c1cc2c([nH]1)CCCC2 | active: 12.6 µM
COc1cccc(NC(=O)Nc2cccc(C(=O)O)c2)c1 | inactive
COc1cccc(-c2nn(-c3ccc(C)cc3)cc2C(=O)NCC2CCCO2)c1 (configuration not stated) | inconclusive [inhibitor, single point]

— PubChem BioAssay AID651820 (National Center for Advancing Translational Sciences (NCATS), 2012)
